Reference: the supplement of paper PMC8728848
This is one part of the list.

Assays:
Assay in all cases: glycan array binding signal (z-score within array); higher = stronger binding
Settings in all cases: glycan notation: IUPAC condensed, linker removed; mutation: E41G
[1] = molecular target: Fuc(a1-2)Gal
Summary of the method: (§1)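 Negative Z-scores can be read as non-binding. The Z-score is calculated within each array and then averaged across arrays of one protein sequence at different concentrations or buffers and across linkers. Arrays, 3228 in all, were curated from the Consortium for Functional Glycomics database and kept only where the protein sequence was available.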

[2] = molecular target: Fuc(a1-2)Gal(b1-3)GalNAc
Summary of the method: as §1

[3] = molecular target: Fuc(a1-2)Gal(b1-3)GalNAc(a1-3)[Fuc(a1-2)]Gal(b1-4)Glc
Summary of the method: as §1

[4] = molecular target: Fuc(a1-2)Gal(b1-3)GalNAc(a1-3)[Fuc(a1-2)]Gal(b1-4)GlcNAc
Summary of the method: as §1

[5] = molecular target: Fuc(a1-2)Gal(b1-3)GalNAc(b1-3)Gal
Summary of the method: as §1

[6] = molecular target: Fuc(a1-2)Gal(b1-3)GalNAc(b1-3)Gal(a1-4)Gal(b1-4)Glc
Summary of the method: as §1

[7] = molecular target: Fuc(a1-2)Gal(b1-3)GalNAc(b1-4)[Neu5Ac(a2-3)]Gal(b1-4)Glc
Summary of the method: as §1

[8] = molecular target: Fuc(a1-2)Gal(b1-3)GlcNAc
Summary of the method: as §1

[9] = molecular target: Fuc(a1-2)Gal(b1-3)GlcNAc(b1-2)Man(a1-3)[Fuc(a1-2)Gal(b1-3)GlcNAc(b1-2)Man(a1-6)]Man(b1-4)GlcNAc(b1-4)GlcNAc
Summary of the method: as §1

[10] = molecular target: Fuc(a1-2)Gal(b1-3)GlcNAc(b1-2)Man(a1-3)[Fuc(a1-2)Gal(b1-3)GlcNAc(b1-2)Man(a1-6)]Man(b1-4)GlcNAc(b1-4)[Fuc(a1-6)]GlcNAc
Summary of the method: as §1

[11] = molecular target: Fuc(a1-2)Gal(b1-3)GlcNAc(b1-3)Gal(b1-4)Glc
Summary of the method: as §1

[12] = molecular target: Fuc(a1-2)Gal(b1-3)GlcNAc(b1-3)GalNAc
Summary of the method: as §1

[13] = molecular target: Fuc(a1-2)Gal(b1-3)GlcNAc(b1-3)[Fuc(a1-2)Gal(b1-3)GlcNAc(b1-6)]GalNAc
Summary of the method: as §1

[14] = molecular target: Fuc(a1-2)Gal(b1-3)GlcNAc(b1-3)[Gal(b1-4)GlcNAc(b1-6)]Gal(b1-4)Glc
Summary of the method: as §1

[15] = molecular target: Fuc(a1-2)Gal(b1-3)GlcNAc(b1-3)[Neu5Ac(a2-6)Gal(b1-4)GlcNAc(b1-6)]Gal(b1-4)Glc
Summary of the method: as §1

[16] = molecular target: Fuc(a1-2)Gal(b1-3)GlcNAc6S
Summary of the method: as §1

[17] = molecular target: Fuc(a1-2)Gal(b1-3)[Fuc(a1-4)]GlcNAc
Summary of the method: as §1

[18] = molecular target: Fuc(a1-2)Gal(b1-3)[Fuc(a1-4)]GlcNAc(b1-2)Man(a1-3)[Fuc(a1-2)Gal(b1-3)[Fuc(a1-4)]GlcNAc(b1-2)Man(a1-3)]Man(b1-4)GlcNAc(b1-4)GlcNAc
Summary of the method: as §1

[19] = molecular target: Fuc(a1-2)Gal(b1-3)[Fuc(a1-4)]GlcNAc(b1-2)Man(a1-3)[Fuc(a1-2)Gal(b1-3)[Fuc(a1-4)]GlcNAc(b1-2)Man(a1-6)]Man(b1-4)GlcNAc(b1-4)[Fuc(a1-6)]GlcNAc(b1-4)[Fuc(a1-6)]GlcNAc
Summary of the method: as §1

[20] = molecular target: Fuc(a1-2)Gal(b1-3)[Fuc(a1-4)]GlcNAc(b1-3)[Fuc(a1-3)[Gal(b1-4)]GlcNAc(b1-6)]Gal(b1-4)Glc
Summary of the method: as §1

[21] = molecular target: Fuc(a1-2)Gal(b1-3)[Fuc(a1-4)]GlcNAc(b1-3)[Gal(b1-4)GlcNAc(b1-6)]Gal(b1-4)Glc
Summary of the method: as §1

[22] = molecular target: Fuc(a1-2)Gal(b1-4)Fuc(a1-3)]GlcNAc(b1-2)Man(a1-3)[Fuc(a1-2)Gal(b1-4)[Fuc(a1-3)]GlcNAc(b1-2)Man(a1-6)]Man(b1-4)GlcNAc(b1-4)GlcNAc
Summary of the method: as §1

[23] = molecular target: Fuc(a1-2)Gal(b1-4)Glc
Summary of the method: as §1

[24] = molecular target: Fuc(a1-2)Gal(b1-4)Glc6S
Summary of the method: as §1

[25] = molecular target: Fuc(a1-2)Gal(b1-4)GlcNAc
Summary of the method: as §1

[26] = molecular target: Fuc(a1-2)Gal(b1-4)GlcNAc(b1-2)Man
Summary of the method: as §1

[27] = molecular target: Fuc(a1-2)Gal(b1-4)GlcNAc(b1-2)Man(a1-3)[Fuc(a1-2)Gal(b1-4)GlcNAc(b1-2)Man(a1-6)]Man(b1-4)GlcNAc(b1-4)GlcNAc
Summary of the method: as §1

[28] = molecular target: Fuc(a1-2)Gal(b1-4)GlcNAc(b1-2)Man(a1-3)[Fuc(a1-2)Gal(b1-4)GlcNAc(b1-2)Man(a1-6)]Man(b1-4)GlcNAc(b1-4)[Fuc(a1-6)]GlcNAc
Summary of the method: as §1

[29] = molecular target: Fuc(a1-2)Gal(b1-4)GlcNAc(b1-2)[Fuc(a1-2)Gal(b1-4)GlcNAc(b1-4)]Man(a1-3)[Fuc(a1-2)Gal(b1-4)GlcNAc(b1-2)Man(a1-6)]Man(b1-4)GlcNAc(b1-4)GlcNAc
Summary of the method: as §1

[30] = molecular target: Fuc(a1-2)Gal(b1-4)GlcNAc(b1-3)Gal(b1-4)GlcNAc
Summary of the method: as §1

B1: CVN-E41G (protein)
chain: MHHHHHHENLYFQSGNFSQACYNSAIQGSVLTSTCIRTNGGYNTSSIDLNSVIGNVDGSLKWQGSNFIETCRNTQLAGSSELAAECKTRAQQFVSTKINLDDHIAAIDGTLKYE
- glycan array binding signal (z-score) [1]: -0.163
- glycan array binding signal (z-score) [2]: -0.178
- glycan array binding signal (z-score) [3]: -0.148
- glycan array binding signal (z-score) [4]: -0.099
- glycan array binding signal (z-score) [5]: 0.145
- glycan array binding signal (z-score) [6]: -0.237
- glycan array binding signal (z-score) [7]: -0.131
- glycan array binding signal (z-score) [8]: -0.155
- glycan array binding signal (z-score) [9]: 0.1
- glycan array binding signal (z-score) [10]: 0.228
- glycan array binding signal (z-score) [11]: -0.155
- glycan array binding signal (z-score) [12]: -0.168
- glycan array binding signal (z-score) [13]: -0.093
- glycan array binding signal (z-score) [14]: -0.196
- glycan array binding signal (z-score) [15]: -0.169
- glycan array binding signal (z-score) [16]: -0.182
- glycan array binding signal (z-score) [17]: -0.157
- glycan array binding signal (z-score) [18]: 0.006
- glycan array binding signal (z-score) [19]: 0.123
- glycan array binding signal (z-score) [20]: -0.172
- glycan array binding signal (z-score) [21]: -0.148
- glycan array binding signal (z-score) [22]: 0.115
- glycan array binding signal (z-score) [23]: -0.171
- glycan array binding signal (z-score) [24]: -0.129
- glycan array binding signal (z-score) [25]: -0.183
- glycan array binding signal (z-score) [26]: -0.138
- glycan array binding signal (z-score) [27]: 0.116
- glycan array binding signal (z-score) [28]: 0.545
- glycan array binding signal (z-score) [29]: 0.314
- glycan array binding signal (z-score) [30]: -0.163
